# Measured values from the supplement of paper PMC9446081.
# The whole screen tested about 39,000 compounds, of which about 220 (0.56%) showed activity. Some of the results follow.
# Test system: Escherichia coli K-12 BW25113
# Experiment: relative growth (OD600 normalised to plate interquartile mean) (fraction); higher = less growth inhibition, active = 0.2 or less
# Details: 50 µM; LB; incubation time: overnight (16-24 h)
# 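Note: static incubation at 37 °C against the wild-type strain, values averaged over two biological replicates.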
row,Compound,relative growth
1,Cc1cc(C(=O)Nc2cccc3c2O[C@@H](CN(C)S(=O)(=O)c2cccs2)[C@@H](C)CN([C@@H](C)CO)C3=O)n(C)n1,inactive: 0.991
2,C[C@@H]1CN([C@@H](C)CO)C(=O)c2cccc(NS(=O)(=O)c3ccc(F)cc3)c2O[C@H]1CN(C)C(=O)Nc1ccc(C(F)(F)F)cc1,inactive: 0.945
3,Cc1ccc(S(=O)(=O)Nc2cccc3c2O[C@H](CN(C)S(=O)(=O)c2ccccc2)[C@@H](C)CN([C@H](C)CO)C3=O)cc1,inactive: 1.02
4,O=C(C[C@H]1CC[C@@H]2[C@H](COC[C@@H](O)CN2S(=O)(=O)c2cccc(Cl)c2)O1)NCCCN1CCOCC1,inactive: 0.982
5,CCc1nc2ccc(C(=O)Nc3cc(-c4ccccc4)ccc3OC)cn2c1N(C)Cc1ccc(OC)cc1,inactive: 1.03
6,Cc1noc(C)c1S(=O)(=O)Nc1ccc2c(c1)CC(=O)N([C@H](C)CO)C[C@H](C)[C@H](CN(C)Cc1ccncc1)O2,inactive: 1.01
7,Cc1ccc(S(=O)(=O)N(C)C[C@H]2Oc3ccc(NC(=O)Nc4cccc5ccccc45)cc3CC(=O)N([C@@H](C)CO)C[C@H]2C)cc1,inactive: 1.02
8,C[C@H](CO)N1C[C@H](C)[C@H](CN(C)Cc2cccc3c2OCCCO3)OCc2cnnn2CCCC1=O,inactive: 0.964
9,Cl.NCCCCC(N)C(=O)O (stereo unspecified),inactive: 1.02
10,C[C@@H]1CCCCO[C@H](CN(C)C(=O)Nc2ccc(C(F)(F)F)cc2)[C@H](C)CN([C@@H](C)CO)C(=O)c2cc(NC(=O)c3ccccc3)ccc2O1,inactive: 1.02
11,C[C@H]1CCCCO[C@@H](CN(C)S(=O)(=O)c2cn(C)cn2)[C@@H](C)CN([C@@H](C)CO)C(=O)c2cc(NS(=O)(=O)c3cn(C)cn3)ccc2O1,inactive: 0.974
12,Nc1nonc1C(=O)OCC(=O)c1ccccc1,inactive: 1.03
13,C[C@@H]1CN([C@@H](C)CO)C(=O)c2cccc(NS(C)(=O)=O)c2O[C@@H]1CN(C)Cc1ccc(C(F)(F)F)cc1,inactive: 0.992
14,CC[C@H]1OC(=O)C[C@@H](O)[C@H](C)[C@@H](O[C@@H]2O[C@H](C)[C@@H](O[C@H]3C[C@@](C)(O)[C@@H](O)[C@H](C)O3)[C@H](N(C)C)[C@H]2O)[C@@H](CC=O)C[C@@H](C)C(=O)/C=C/C(C)=C/[C@@H]1CO[C@@H]1O[C@H](C)[C@@H](O)[C@@H](OC)[C@H]1OC,inactive: 0.971
15,CC(=O)N[C@@H](Cc1ccc(F)cc1)C(=O)O,inactive: 0.99
16,Cc1ccc(S(=O)(=O)N[C@H]2CC[C@@H](CC(=O)N3CCC(Cc4ccccc4)CC3)O[C@@H]2CO)cc1,inactive: 1.02
